Results published in PubChem BioAssay AID624296 (National Center for Advancing Translational Sciences (NCATS), 2012).
Screen size: about 350,000 compounds; about 9,900 (2.8%) were called active. The inconclusive results got no clear call from the source; some entries with a clear call stand among them for comparison. The call rests on the fitted dose curve; in most records, active means well fitted activation curve with a large enough effect; inconclusive means small, poorly fitted or top-dose-only effect; inactive means no such curve, though single readings can be large or run the other way. No potency is given beside an inconclusive call; the fits are too rough.

Assay: A quantitative high throughput screen for small molecules that induce DNA re-replication in MCF 10a normal breast cells. Further: nearly all actives have a fitted effect of over 50% in size. On activity, positive = re-replication: % of control where 0% means no effect.
Details: MCF 10A DNA re-replication, Hoechst nuclear intensity, 48 h; activity, positive = re-replication: at 46.1 µM (top of the series)
Potency means the concentration at half of the fitted maximal effect; tags describe the fitted curve by direction and shape.

| Structure (SMILES) | Potency | activity, positive = re-replication |
| --- | --- | --- |
| O=S1(=O)CCC(N=Cc2ccc(-c3ccc(Cl)cc3)o2)C1 (stereo unspecified) | inconclusive [activator, single point] | – |
| COc1ccc(CN2CCN(C(=O)c3ccc4nc(N5CCOCC5)sc4c3)CC2)c(OC)c1OC | – | inactive: -43.3% |
| Cc1cc(C)n2nc(SCC(=O)NC(=O)c3ccccc3Cl)nc2n1 | inconclusive [activator, single point] | – |
| Cc1cccc(NS(=O)(=O)c2ccc(C)c(C(=O)NCc3ccccn3)c2)c1 | inconclusive [activator, single point] | – |
| C[C@@]12C(=O)N(Cc3ccccc3)CC(=O)N1[C@H](/C=C/c1ccccc1)[C@@H]1C(=O)N(c3ccccc3)C(=O)[C@@H]12 | inconclusive [activator, single point] | – |
| O=C(NCc1cccs1)C1CCN(S(=O)(=O)c2cccc([N+](=O)[O-])c2)CC1 | – | inactive: 9.18% |
| Cc1cccc(C(=O)N/C(=C\c2ccco2)C(=O)N2CCCC2)c1 | – | inactive: -7.42% |
| CCOC(=O)Nc1ccc(NCc2ccc(F)cc2)nc1N | inconclusive [activator, partial curve, poor fit] | – |
| Cc1ccc(S(=O)(=O)Nc2cccc(Cl)c2)cc1NC(=O)C1CC1 | – | inactive: 0.709% |
| Cc1ccc2ncnc(Nc3ccc(C)c(C)c3)c2c1 | inconclusive [activator, partial curve, poor fit] | – |
| CN(C)/C=C/C(=O)/C=C/c1ccc(Cl)cc1Cl | inconclusive [activator, single point] | – |
| O=C(Nc1ccc(-c2nnc(-c3ccco3)o2)cc1)C(c1ccccc1)c1ccccc1 | inconclusive [activator, single point] | – |
| Cc1cccc2cc(C#N)c(SCC(=O)N3CC(=O)Nc4ccccc43)nc12 | active: 0.651 µM | – |
| CC(C)Nc1nnc(SCC(=O)/C=C2\N(C)c3ccccc3C2(C)C)s1 | inconclusive [activator, single point] | – |
| Cc1ccsc1C(=O)C1CCCN(Cc2cccn2-c2ccc(Cl)cn2)C1 (stereo unspecified) | inconclusive [activator, single point] | – |
| Cc1ccc(C)c(NC(=S)NCCc2ccc(F)cc2)c1 | inconclusive [activator, partial curve, poor fit] | – |
| COc1ccccc1C(=O)NC(=O)COC(=O)CCOc1ccc(C)cc1 | – | inactive: 0.994% |
| N=c1c2ccccc2nnn1-c1ccc(C(F)(F)F)cc1 | inconclusive [activator, single point] | – |
| Cc1ccc(NS(=O)(=O)c2ccc(C(=O)OCC(=O)N3CCCCC3)cc2)cc1 | inconclusive [activator, full curve] | – |
| COc1cccc(C(=O)Nc2ccc(N3CCCC3)cc2)c1 | inconclusive [activator, partial curve, poor fit] | – |
| CCOC(=O)c1c(NC(=O)c2ccno2)c2cc([N+](=O)[O-])ccc2n1C | inconclusive [activator, partial curve, poor fit] | – |
| C=CCn1c(-c2cccc(Cl)c2)n[nH]c1=S | – | inactive: -2.63% |
| CCOC(=O)c1c(NC(=O)CN2CCCc3ccccc32)sc(C)c1C | inconclusive [activator, partial curve, poor fit] | – |
| CC(=O)c1cc2c(cc1NS(=O)(=O)c1ccccc1Br)OCO2 | – | inactive: -3.44% |

| Structure (SMILES) | Potency | activity, positive = re-replication |
| --- | --- | --- |
| O=c1[nH]c(CSc2ncc(C(F)(F)F)cc2Cl)nc2cc(C(F)(F)F)ccc12 | inconclusive [activator, single point] | – |
| Cc1[nH]c2c(Cl)cccc2c1CCNC(=O)C1CCCCC1C(=O)OCC(F)(F)F (stereo unspecified) | – | inactive: -4.65% |
| CC1CN(C(=O)COc2coc(CN3CCc4ccccc4C3)cc2=O)CC(C)O1 (stereo unspecified) | – | inactive: 0.263% |
| CCCn1c(SCC(=O)Nc2nnc(-c3ccccc3)s2)nnc1-c1ccccn1 | active: 18.4 µM | – |
| CS(=O)(=O)N(CC(=O)Nc1ccccc1-c1ccccc1)c1cccc(F)c1 | active: 0.651 µM | – |
| CCCCSc1nc2ccccc2[nH]1 | – | inactive: -11% |
| COc1cc(-c2cc(C(=O)Nc3ccc(S(=O)(=O)Nc4ncccn4)cc3)c3ccccc3n2)cc(OC)c1OC | – | inactive: 4.6% |
| COc1cc(C(=O)Nn2c(C)nc3ccccc3c2=O)cc(OC)c1OC | – | inactive: 3.65% |
| Cc1ccc(NS(=O)(=O)c2cc(C(=O)N3CCc4ccccc4C3)ccc2Cl)cc1 | inconclusive [activator, single point] | – |
| c1ccc(COc2ccc(OCCCN3CCCCC3)cc2)cc1 | inconclusive [activator, single point] | – |
| Cn1c(-c2ccccc2)cnc1NCc1ccc(F)cc1 | – | inactive: 1.66% |
| COc1ccc(C2NC(=S)NC3=C2N2CCC3CC2)cc1 (stereo unspecified) | – | inactive: 1.28% |
| Cc1cc2ccccn2c1C(=O)c1cccc([N+](=O)[O-])c1 | inconclusive [activator, partial curve, poor fit] | – |
| COc1ccc(Nc2ncnc3sc(-c4ccccc4)cc23)c(OC)c1 | inconclusive [activator, single point] | – |
| c1ccc2c(CSc3nnc(-c4ccncc4)o3)cccc2c1 | inconclusive [activator, single point] | – |
| CO[C@H]1[C@H](O[C@H]2O[C@@H](C)[C@@H](O[C@@H]3C[C@](C)(O)[C@H](O)[C@H](C)O3)[C@@H](N(C)C)[C@@H]2O)[C@@H](CC=O)C[C@@H](C)[C@@H](O[C@H]2CC[C@H](N(C)C)[C@H](C)O2)/C=C\C=C/C[C@@H](C)OC(=O)C[C@H]1O | – | inactive: -5.11% [at 20.6 µM] |
| CCN(CC)S(=O)(=O)c1ccc(N2CCN(S(=O)(=O)c3ccccc3)CC2)nc1 | inconclusive [activator, partial curve, poor fit] | – |
| Cn1c(SCc2ccon2)nc2ccccc2c1=O | active: 8.2 µM | – |
| CN(C(=O)COC(=O)CSc1cc(Cl)ccc1Cl)c1c(N)n(Cc2ccccc2)c(=O)[nH]c1=O | – | inactive: 1.25% |
| COc1cc(OC)c(OC)cc1/C=C1\CCC/C(=C\c2cc(OC)c(OC)cc2OC)C1=O | active: 16.4 µM | – |
| COc1ccc(NC(=O)CN2CCN(c3c(C)cc(C)cc3C)CC2)cc1 | inconclusive [activator, single point] | – |
| COc1ccc(CC(=O)Nc2cccc(-c3cn4ccccc4n3)c2)cc1 | inconclusive [activator, single point] | – |
| Cc1cc(C)c(S(=O)(=O)Nc2ccc3c(c2)CCC3)c(C)c1 | inconclusive [activator, single point] | – |
| COc1ccc(C(=O)/C=C/c2ccc(OC3CSC3)cc2)cc1OC | inconclusive [activator, single point] | – |

| Structure (SMILES) | Potency | activity, positive = re-replication |
| --- | --- | --- |
| COc1ccc(NC(=O)c2ccc3c(c2)OCO3)cc1 | – | inactive: 20.8% |
| COc1cc(C2Oc3ccccc3C=C2[N+](=O)[O-])cc(OC)c1OC (stereo unspecified) | inconclusive [activator, full curve, poor fit] | – |
| Cc1cc(Cl)ccc1OCc1n[nH]c(=S)n1C1CCCCC1 | active: 25.9 µM | – |
| CC(C)(C)C(=O)Oc1ccc2cc(-c3ccc4ccccc4n3)c(=O)oc2c1 | active: 6.51 µM | – |
| Cc1nn(-c2ccccc2)c2c1C1(C(=O)N3c4c(cccc41)C(C)CC3(C)C)C(C#N)=C(N)O2 (stereo unspecified) | inconclusive [activator, single point] | – |
| O=C(O)c1[nH]c2ccccc2c1C=NCc1ccccc1Cl | inconclusive [activator, full curve, poor fit] | – |
| CCCn1c(/C=N/Nc2nc3ccccc3[nH]2)nc2ccccc21 | inconclusive [activator, single point] | – |
| O=C(NCCc1csc(-c2ccccc2)n1)c1c(F)cccc1F | – | inactive: 11.5% |
| CC(=O)Nc1ccc(CN2CCN(C3CCCC3)C(CCO)C2)cc1 (stereo unspecified) | active: 2.59 µM | – |
| COC(=O)c1c(NC(=O)c2ccc(C)cc2)csc1C | inconclusive [activator, partial curve, poor fit] | – |
| N=c1ccn(CC(=O)c2ccc(-c3ccccc3)cc2)cc1 | – | inactive: 7.5% |
| O=C(NC1CCCC1)c1cnn2c(C(F)(F)F)cc(-c3ccc4c(c3)OCO4)nc12 | – | inactive: 10.6% |
| CCOC(=O)C1CCN(c2ncnc3c2oc2ccccc23)CC1 | inconclusive [activator, single point] | – |
| CC(C)=CCC1C(=O)N(c2ccccc2)N(c2ccccc2)C1=O | active: 29.9 µM | – |
| CC(=O)Nc1sc(-c2ccc(Cl)cc2)nc1-c1ccccc1 | inconclusive [activator, single point] | – |
| COc1ccc(NC(c2ccccc2)c2ccncc2)cc1 (stereo unspecified) | – | inactive: 2.68% |
| C/C(=N\Nc1ccc2nncn2n1)c1ccccn1 | inconclusive [activator, full curve] | – |
| Nc1nccc(/C=C/c2c(Cl)cccc2Cl)n1 | inconclusive [activator, full curve] | – |
| Cn1c(=O)[nH]c(=O)c2c1nc([N+](=O)[O-])n2Cc1ccccc1 | active: 2.06 µM | – |
| COc1ccc(C[C@H]2CN3C(=NC[C@@H]3Cc3ccccc3)N2CCNC(=O)CCC2CCCCC2)cc1 | inconclusive [activator, single point] | – |
| CCN(C(=O)Cn1cnc2ccccc2c1=O)C1CCS(=O)(=O)C1 (stereo unspecified) | inconclusive [activator, single point] | – |
| C/C(=N/NC(=O)c1ccc(Br)o1)c1cccc(NC(=O)c2ccc(C)o2)c1 | – | inactive: -0.226% |
| COc1ccc(-c2nc3ccc(N4CCCC4)cc3c(=O)[nH]2)cc1OC | active: 23.1 µM | – |
